Results published in the supplement of paper PMC3334620.
Over roughly 33,000 sequences, “E-score (-0.5 to 0.5)” has its median near -0.035; the highest 2% begin near 0.35. The list shows a part of the results.

What follows are sequences tested against T1, Pdr3 (UniProt P33200) (assay: PBM E-score (8-mer binding enrichment) (E-score (-0.5 to 0.5)); higher = stronger / more preferred TF binding; most listed sequences are background and not binding sites). Settings: protein concentration: 200 nM; construct: GST-full length.
T1 sequence: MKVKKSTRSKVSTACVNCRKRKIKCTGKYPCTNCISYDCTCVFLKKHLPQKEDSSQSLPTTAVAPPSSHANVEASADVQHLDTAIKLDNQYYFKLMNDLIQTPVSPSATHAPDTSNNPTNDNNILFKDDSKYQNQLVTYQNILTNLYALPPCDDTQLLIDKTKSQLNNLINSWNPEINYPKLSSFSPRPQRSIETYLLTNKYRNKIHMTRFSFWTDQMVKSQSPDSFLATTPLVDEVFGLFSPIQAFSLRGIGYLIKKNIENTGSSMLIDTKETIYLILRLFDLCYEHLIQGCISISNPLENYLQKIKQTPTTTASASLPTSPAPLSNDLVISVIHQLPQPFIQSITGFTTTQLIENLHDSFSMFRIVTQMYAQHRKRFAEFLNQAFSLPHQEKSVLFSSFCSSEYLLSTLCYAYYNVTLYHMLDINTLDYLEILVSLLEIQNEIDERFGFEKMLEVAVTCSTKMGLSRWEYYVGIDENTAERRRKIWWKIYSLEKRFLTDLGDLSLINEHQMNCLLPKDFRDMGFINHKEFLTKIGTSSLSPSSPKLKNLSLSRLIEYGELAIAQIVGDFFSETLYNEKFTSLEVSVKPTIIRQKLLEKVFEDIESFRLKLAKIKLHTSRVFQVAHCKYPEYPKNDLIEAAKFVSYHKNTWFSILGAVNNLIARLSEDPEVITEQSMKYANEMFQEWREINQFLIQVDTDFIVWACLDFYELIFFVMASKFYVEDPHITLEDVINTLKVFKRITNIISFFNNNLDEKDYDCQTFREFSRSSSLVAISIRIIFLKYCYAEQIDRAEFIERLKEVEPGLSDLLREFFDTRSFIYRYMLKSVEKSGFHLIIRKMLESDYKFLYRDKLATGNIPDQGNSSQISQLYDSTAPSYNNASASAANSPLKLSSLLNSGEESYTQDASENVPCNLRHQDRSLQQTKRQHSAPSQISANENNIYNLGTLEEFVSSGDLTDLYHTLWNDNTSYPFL
How it was run: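 GST-tagged yeast TFs (full-length or DNA-binding domain) were made by PURExpress in vitro transcription/translation and applied at about 100-200 nM to universal all-10-mer Agilent arrays. The arrays were made double-stranded by primer extension, on fresh or once-stripped slides. Bound protein was detected with fluorescent anti-GST, and scans were normalised with masliner. Each ungapped eight-base word, pooled with its reverse complement, received an E-score (modified Wilcoxon-Mann-Whitney statistic) from the Universal PBM Analysis Suite.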

Sequence	PBM E-score
ACGCCTAA	-0.145
ACCCCCAA	-0.0272
CGTGAGTC	-0.0549
GCTACGGA	0.218
CAACACGC	-0.127
CGCCCATC	0.166
CGATCTAG	-0.29
ACTCCGAT	0.203
ATGGGCTC	-0.152
AGACCTTG	-0.253
AAACCTCC	-0.0529
AGTTCTGC	0.101
ACTAATAA	0.0661
CGCGTACG	0.0867
AAGCACAC	-0.122
ATCCCGGC	0.419
CTATCGGA	0.318
CAGGCTGG	-0.208
CTAATCCC	0.124
AAACAGCA	0.071
AACAAAGA	-0.0935
CTGGAGTA	-0.206
CTGTGCGA	-0.173
AAAGCGCG	-0.0452
CTAGACCC	-0.129

Sequence	PBM E-score
TGTTTCAA	-0.153
ATTTCCGA	0.338
GCAATATA	-0.0113
AAGTCTGC	-0.233
GAAGTGTA	-0.201
CCTCCGTC	0.15
AATACTAC	-0.103
AGTAGACG	-0.117
ACGCTATC	-0.0579
CGTGTAAG	-0.16
TATGACCA	0.0196
GATTCCAA	-0.0548
GCGTGCCA	-0.0428
ATACTATC	-0.0366
CCCAGGAC	-0.201
CCAGCAGG	-0.23
GTGCGGTA	0.0907
CTTACTCA	-0.0528
AGCTCAAT	0.00244
AGTAGAGC	-0.148
TGTCCGAA	0.305
AGGTTGAG	-0.213
ATAATGAC	-0.123
CTGCGCCA	0.0227
AACTTCGC	0.0133

Sequence	PBM E-score
ACAGGAGC	-0.0735
AACCTCTA	-0.0113
CTGTTTTC	-0.0973
GTAAGGAC	-0.105
GTAACGGA	0.397
AAGAGCTT	0.0876
GTTTAAAC	-0.029
ACAGGACG	-0.179
AACTGGAG	-0.0991
AGGTCTGC	-0.276
ATAGAAAC	-0.00528
AACGTATC	-0.138
CCGGTACC	0.243
CCAAATCA	-0.0208
GGACGTAA	-0.0005
GGGAACTA	0.0485
CACGGAGC	0.374
ACCCCCGA	-0.0135
GCATACCA	0.0165
ACCCATGA	-0.0559
ACGGATGC	0.288
TGGATCAA	-0.168
ATAGACCC	0.154
CAGTCGAC	0.0911
AGTCTGTA	-0.28

Sequence	PBM E-score
GGCTCCAA	-0.0883
AGAGTGGC	-0.131
GATGAAGA	-0.0239
GAGCCCGC	0.222
ATCGCATC	0.121
ATAACGCA	-0.134
GTAGGTAA	-0.11
TAACCACA	-0.227
CCGGAAAG	0.414
TGTAAACA	-0.148
CATCGCTA	-0.101
GGCTAACC	-0.236
GCTCGTCA	-0.159
AAACTAAA	-0.0271
ACAGCTAC	-0.197
CTAATGTA	-0.0347
GAAGAAAC	0.0528
CTCTGACC	-0.166
CTTCTGTC	-0.0447
ACATGTAC	0.0239
CGCATTTC	0.243
CGGGAAAG	0.281
ACGGTCAT	0.163
GAGGCGCA	0.0691
AAGTGCGC	0.144

Sequence	PBM E-score
GTATAAAC	0.0622
CATAAGAA	0.0614
GGAGCCTA	0.14
CTAATAGC	-0.241
AAATAGGC	0.14
ATGTCAAG	-0.185
AGTATGGG	-0.0615
TAAATGGA	-0.0165
GAAGACCC	0.0497
CCCAAATA	-0.132
AATTATAA	0.12
TACCTTGA	0.0326
ATACCGAT	0.136
TAAGAAGA	0.13
AAAGATGC	-0.105
ACCATACT	0.0155
CGACTCCC	-0.14
GCGAACCA	-0.0454
CCACGCAG	-0.11
ATGAAAGG	0.014
ATGCGATC	-0.0108
CATTAATC	-0.0566
GGAGGTCA	-0.0982
AGGACCAT	-0.155
GATCATAA	0.0465

Sequence	PBM E-score
AAACATAC	-0.107
AGTCCTAC	-0.0319
TCGCGGCA	0.174
CCTACGGC	-0.156
CACGACTG	-0.225
ACCGTTGC	0.0446
CGAGCTAC	-0.0374
TACGGTCA	0.0404
AGGTTGCG	-0.311
GGACAACA	0.0863
ACCTTCGA	-0.0301
ACACGACT	-0.0613
CATCGCAA	-0.196
GAACCTGA	-0.131
CAGCTTAA	-0.00551
GGAAAGTA	0.223
CCCGTCAG	0.0914
AACTGTGA	0.0734
ACCCCTCA	-0.0399
TCACGGGA	0.203
AGATACAT	0.0262
TGACAAAA	-0.115
TGCGCCCA	-0.0623
AACCAATC	0.152
AAGCGAGC	0.0993

Sequence	PBM E-score
TGGACCCA	-0.168
GGACACCC	0.117
GCAAGCGC	0.051
AAATGAGT	0.0718
ACGAAAGT	-0.0393
AACTTCAA	-0.0145
ATAAAACC	0.036
CTACGCGA	-0.139
ATAAGAGA	0.082
GTGAAATA	-0.0968
ATACATAG	-0.126
CATGACAG	-0.114
AGGAGTGG	-0.0796
CACTAGGC	-0.0109
CACCAAAA	-0.054
AACACTGC	0.145
ACTACGGA	0.362
ATTCAAGC	0.0293
TCTGGTCA	-0.172
CAATCATA	0.0491
TAAGGGCA	-0.0407
ATCGGTAG	-0.0753
